The source of these data is the supplement of paper PMC9446081.

Each structure is given as a SMILES string. In all, about 39,000 compounds went through this assay and about 220 (0.56%) showed activity. This is one part of the list.
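Also: static incubation at 37 °C against the wild-type strain, values averaged over two biological replicates.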

The subject of this assay is Escherichia coli K-12 BW25113. As to the kind of experiment: relative growth (OD600 normalised to plate interquartile mean) (fraction); higher = less growth inhibition, active = 0.2 or less. Conditions: 50 µM; LB; incubation time: overnight (16-24 h).
As to `C[C@H]1CN([C@@H](C)CO)C(=O)Cc2cc(NC(=O)CCN3CCOCC3)ccc2O[C@@H]1CN(C)Cc1ccc(C(=O)O)cc1`, the relative growth is inactive: 1.05.
The value for `CC(C)OC(=O)OCOP(=O)(CO[C@H](C)Cn1cnc2c(N)ncnc21)OCOC(=O)OC(C)C` was inactive: 0.993; that for `CC(C)CC#Cc1ccc2c(c1)O[C@@H](CN(C)C(=O)Cc1ccncc1)[C@@H](C)CN([C@@H](C)CO)S2(=O)=O` was inactive: 0.919; that for `Cc1noc(C)c1NC(=O)Nc1ccc2c(c1)CC(=O)N([C@@H](C)CO)C[C@@H](C)[C@@H](CN(C)Cc1ccc(-c3ccccc3)cc1)O2` was inactive: 0.995.
The value for `C[C@@H]1CCCCO[C@H](CN(C)Cc2ccc(Cl)c(Cl)c2)[C@@H](C)CN([C@@H](C)CO)C(=O)c2cc(NC(=O)C3CCCCC3)ccc2O1` was inactive: 1.02; that for `C[C@@H]1CN([C@H](C)CO)C(=O)Cc2cc(NS(=O)(=O)c3cccs3)ccc2O[C@H]1CN(C)S(=O)(=O)c1cn(C)cn1` was inactive: 0.994.
The value for `C[C@@H]1CN([C@@H](C)CO)C(=O)c2cc(NS(=O)(=O)c3cn(C)cn3)ccc2O[C@H]1CN(C)C(=O)Nc1ccc(F)cc1` was inactive: 1.01; that for `CC(C)NC(=O)N(C)C[C@@H]1OCc2cnnn2CCCC(=O)N([C@@H](C)CO)C[C@@H]1C` was inactive: 1.02.
`C[C@@H]1CCCCO[C@@H](CN(C)C(=O)Nc2ccc3c(c2)OCO3)[C@@H](C)CN([C@H](C)CO)C(=O)c2cc(NC(=O)NC3CCCCC3)ccc2O1`: the relative growth was inactive: 1.01.
Turning to `O=C(C[C@H]1C=C[C@@H](NC(=O)C2CCC2)[C@@H](CO)O1)NCCCN1CCOCC1`, the relative growth was inactive: 0.964.
With `CC[N+](CC)(CC)CCOc1cccc(OCC[N+](CC)(CC)CC)c1OCC[N+](CC)(CC)CC`, the relative growth is inactive: 0.912.
With `Cc1ccc(NC(=O)Cc2coc3ccc(C(C)C)cc23)cc1`, the relative growth was inactive: 1.01.
In the case of `COc1ccc(S(=O)(=O)Nc2ccc3c(c2)C(=O)N([C@@H](C)CO)C[C@@H](C)[C@@H](CN(C)C(=O)Nc2ccc(F)cc2)OCCCC[C@@H](C)O3)cc1`, the relative growth is inactive: 1.01.
The value for `C[C@@H]1CCCCO[C@H](CN(C)C(=O)Nc2cccc3ccccc23)[C@@H](C)CN([C@H](C)CO)C(=O)c2cc(NS(C)(=O)=O)ccc2O1` was inactive: 1; that for `C[C@H](CO)N1C[C@H](C)[C@H](CN(C)C)OCCCC[C@H](C)Oc2ccc(NC(=O)Nc3ccc(C(F)(F)F)cc3)cc2C1=O` was inactive: 0.966; that for `CC1CCc2c(N3CCC(O)CC3)c(F)cc3c(=O)c(C(=O)O)cn1c23` (centres undefined) was active: 0.0484.
Turning to `CC(C)N1C[C@H](C)[C@@H](CN(C)Cc2ccc(Cl)cc2)Oc2c(NC(=O)c3ccncc3)cccc2C1=O`, the relative growth was inactive: 1.03.
`COc1ccc2c(c1)c(-c1cccc(C)c1)nn2-c1ccccc1`: the relative growth was inactive: 0.989.
Turning to `C[C@H]1CN([C@@H](C)CO)C(=O)Cc2cc(NC(=O)CCCCCC(=O)Nc3ccccc3N)ccc2O[C@@H]1CN(C)CC1CCCCC1`, the relative growth is inactive: 0.854.
Take `COc1ccc(CN(C)C[C@H]2Oc3c(NS(=O)(=O)c4cn(C)cn4)cccc3C(=O)N([C@H](C)CO)C[C@H]2C)cc1`: the relative growth is inactive: 0.999.
The result for `C[C@@H]1CCCCO[C@H](CN(C)C(=O)Cc2ccccc2)[C@@H](C)CN([C@H](C)CO)C(=O)c2cc(NC(=O)Cc3ccccc3)ccc2O1` reads inactive: 1.01.
As to `C[C@H]1CN([C@@H](C)CO)C(=O)Cc2cc(NS(=O)(=O)c3ccc(F)cc3)ccc2O[C@H]1CN(C)Cc1ccc(-c2ccccc2)cc1`, the relative growth is inactive: 0.941.
Turning to `Nc1c(O)cccc1C(=O)O`, the relative growth was inactive: 1.02.
Turning to `COCC#Cc1ccc2c(c1)O[C@H](CN(C)C(=O)Nc1ccc(OC)cc1)[C@H](C)CN([C@H](C)CO)S2(=O)=O`, the relative growth is inactive: 0.994.
In the case of `CCCNC(=O)N[C@@H]1C=C[C@H](CC(=O)N2CCN(C)CC2)O[C@H]1CO`, the relative growth is inactive: 1.02.
As to `C[C@@H]1O[C@@H](O[C@H]2[C@H](O)[C@@H](O)[C@H](OC[C@H]3O[C@@H](OC(=O)[C@]45CCC(C)(C)C[C@@H]4C4=CC[C@H]6[C@@]7(C)CC[C@H](O[C@H]8OC[C@H](O)[C@H](O)[C@H]8O[C@H]8O[C@@H](C)[C@H](O)[C@@H](O)[C@H]8O)[C@@](C)(CO)[C@@H]7CC[C@@]6(C)[C@]4(C)CC5)[C@H](O)[C@@H](O)[C@@H]3O)O[C@@H]2CO)[C@H](O)[C@H](O)[C@H]1O`, the relative growth is inactive: 1.04.
As to `Cc1noc(C)c1S(=O)(=O)Nc1cccc2c1O[C@@H](CN(C)S(=O)(=O)c1ccc(F)cc1)[C@@H](C)CN([C@@H](C)CO)C2=O`, the relative growth is inactive: 1.02.
Turning to `COc1ccc(NC(=O)N(C)C[C@@H]2OCCCC[C@H](C)Oc3ccc(NC(=O)Nc4ccccc4)cc3C(=O)N([C@@H](C)CO)C[C@@H]2C)cc1`, the relative growth was inactive: 1.02.
Turning to `CC(C)NC(=O)N(C)C[C@@H]1Oc2ccc(NC(=O)CCCN(C)C)cc2CC(=O)N([C@@H](C)CO)C[C@H]1C`, the relative growth is inactive: 0.978.
With `C[C@@H]1CN([C@@H](C)CO)C(=O)Cc2cc(NC(=O)Nc3ccc4c(c3)OCO4)ccc2O[C@@H]1CN(C)C(=O)Nc1cccc2ccccc12`, the relative growth was inactive: 0.989.
Consider `C[C@@H]1CN([C@@H](C)CO)C(=O)c2cc(NC(=O)CCC(F)(F)F)ccc2O[C@H]1CN(C)C(=O)Nc1cccc2ccccc12`, for which the relative growth was inactive: 1.
As to `CN1C(=O)N[C@@H]2c3ccccc3O[C@@]1(COC(=O)NCCCCCC(=O)NO)[C@@H]2COC(=O)c1ccccc1`, the relative growth is inactive: 0.972.
For `C[C@@H]1CCCCO[C@@H](CN(C)C(=O)c2ccncc2)[C@H](C)CN([C@@H](C)CO)C(=O)c2cc(NC(=O)NC3CCCCC3)ccc2O1`, the relative growth is inactive: 1.02.
Take `C[C@@H]1CN([C@@H](C)CO)S(=O)(=O)c2ccc(C#CC3CC3)cc2O[C@H]1CN(C)Cc1cccc(F)c1`: the relative growth is inactive: 1.02.
The value for `COc1ccc(NC(=O)Nc2ccc3c(c2)C(=O)N([C@H](C)CO)C[C@@H](C)[C@@H](CN(C)S(=O)(=O)c2cccs2)OCCCC[C@@H](C)O3)cc1` was inactive: 1.02.
The result for `O=C(NCCCN1CCOCC1)[C@H]1[C@@H]2C=C[C@@]3(CN(Cc4cccs4)C(=O)[C@@H]13)O2` reads inactive: 1.04; that for `Cc1noc(C)c1NC(=O)N(C)C[C@H]1OCCCC[C@@H](C)Oc2ccc(NC(=O)Cc3ccccc3)cc2C(=O)N([C@H](C)CO)C[C@@H]1C`, inactive: 0.986.
Turning to `C[C@H]1CC=CC[C@H](c2cccc(Cl)c2)NC(=O)[C@H](Cc2ccccc2)N(C)C(=O)c2ccccc2O1`, the relative growth was inactive: 1.04.
`COc1ccccc1C#Cc1ccc2c(c1)O[C@@H](CN(C)Cc1cncnc1)[C@@H](C)CN([C@@H](C)CO)S2(=O)=O`: the relative growth was inactive: 1.04.
With `O=C1COc2cccnc2N1`, the relative growth was inactive: 1.03.
As to `NCC(=O)O`, the relative growth was inactive: 1.02.
For `O=C(C[C@H]1CC[C@H]2NC[C@H](O)COC[C@@H]2O1)NCCN1CCCCC1`, the relative growth is inactive: 1.01.
Take `COc1ccc(NC(=O)Nc2cccc3c2O[C@@H](CN(C)Cc2ccc(Cl)c(Cl)c2)[C@H](C)CN([C@H](C)CO)C3=O)cc1`: the relative growth was inactive: 0.999.
With `Cc1ccc(S(=O)(=O)Nc2ccc3c(c2)C(=O)N([C@H](C)CO)C[C@H](C)[C@@H](CN(C)C(=O)c2ccccc2)OCCCC[C@@H](C)O3)cc1`, the relative growth was inactive: 0.988.
The value for `C[C@H](CO)N1C[C@H](C)[C@@H](CN(C)C(=O)Nc2ccc3c(c2)OCO3)Oc2c(NC(=O)c3cnccn3)cccc2C1=O` was inactive: 0.983.
For `CC(=O)NCC(=O)O.CC(=O)NCC(=O)O.N=C(N)c1ccc(N=NNc2ccc(C(=N)N)cc2)cc1`, the relative growth is inactive: 1.01.
As for `Cn1c(=O)[nH]c2ccccc21`, the relative growth is inactive: 1.03.
With `NNc1ccc2[nH]c(=O)[nH]c2c1`, the relative growth was inactive: 1.01.
The value for `C[C@H](CO)N1C[C@H](C)[C@H](CN(C)C(=O)Nc2ccc(F)cc2)OCCCC[C@H](C)Oc2ccc(NC(=O)Nc3ccccc3)cc2C1=O` was inactive: 1.03.
For the compound `COCC#Cc1ccc([C@@H]2[C@H]3CN(C(=O)c4cccnc4)CC(=O)N3[C@H]2CO)cc1`, the relative growth is inactive: 0.935.
On to `O=C(C[C@@H]1CC[C@H](NS(=O)(=O)c2ccc(F)cc2)[C@@H](CO)O1)N1CCC(Cc2ccccc2)CC1`, for which the relative growth is inactive: 0.993.
For the compound `Cc1ccc(S(=O)(=O)N2C[C@H](O)COC[C@H]3O[C@@H](CC(=O)NCc4ccc(Cl)c(Cl)c4)CC[C@@H]32)cc1`, the relative growth is inactive: 1.01.
Regarding `COc1ccc(S(=O)(=O)Nc2ccc3c(c2)C(=O)N([C@H](C)CO)C[C@@H](C)[C@H](CN(C)S(=O)(=O)c2cn(C)cn2)O3)cc1`, the relative growth is inactive: 0.991.
Take `COc1ccc2c3c(n(c2c1)C)[C@@H](CO)N(C[C@]13CCN(CC1)S(=O)(=O)c1ccccc1)C(=O)c1cccnc1`: the relative growth is inactive: 1.02.
Regarding `CS(=O)(=O)N1[C@@H]2c3ccc(C4=CCCCC4)c(=O)n3C[C@H]1[C@H](CO)[C@H]2C(=O)N1CCOCC1`, the relative growth is inactive: 1.02.
The value for `C[C@@H]1CCCCO[C@H](CN(C)Cc2ccc(C(=O)O)cc2)[C@@H](C)CN([C@H](C)CO)C(=O)c2cc(NS(=O)(=O)c3ccc(F)cc3)ccc2O1` was inactive: 1.02; that for `C[C@@H]1CCCCO[C@H](CN(C)Cc2ccccc2)[C@@H](C)CN([C@@H](C)CO)C(=O)c2cc(NS(=O)(=O)c3ccc(F)cc3)ccc2O1` was inactive: 0.975.
With `C[C@@H]1CN([C@H](C)CO)C(=O)c2cccc(NC(=O)c3ccc(-c4nccs4)cc3)c2O[C@H]1CN(C)C(=O)Nc1ccccc1`, the relative growth is inactive: 1.
Take `Cc1ccc(S(=O)(=O)N(C)C[C@@H]2Oc3ccc(NS(=O)(=O)c4c(C)noc4C)cc3CC(=O)N([C@@H](C)CO)C[C@@H]2C)cc1`: the relative growth is inactive: 1.
